Measured values as given in the RNAGym collection of RNA variant scans (doi:10.7554/elife.90254).
Read counts are not given, so values of variants with three or more changes are uncertain.

B1: LINE1-mini (parent)
chain: GGCAGAGCUCAACACAGCGUGGCAAAGUGGCUGUGGCUAGACUGCC

Variants of: B1
Experiment: self-cleavage, relative activity (ratio to wild type); higher = more cleavage; in vitro, sequencing; the parent is a self-cleaving ribozyme

For GGCAGAGAUCAACACAGCGUGGCAAAGUGGCUGUUGCUAGACUACA, which self-cleavage is on record?
Its self-cleavage is 0.1.

For GGCAGAGCGCAACUCUGCGUGGCAAAGUGGCUGUGCCUAGACUGCC, which self-cleavage is on record?
Its self-cleavage is 0.05.

Which self-cleavage does the source give for UGCAGAGCUCAAAACACCGUGGCAAAGAGGCUGUGGCUAAACUGCC here?
The self-cleavage was 0.03.

Which self-cleavage does the source give for GCCAGAGCUCAAUACAGCGUAGCUAAGUGGCUGUGGCUAGACUGCC here?
Its self-cleavage is 0.01.

For GGCAGACCUCAACACAGCGUUGAAAAGUAUCUGUGGCUAGACCGCC, which self-cleavage is on record?
The self-cleavage was 0.05.

With GGCAGAGCACAACACAGCGUGCCAAAGUGGCUGUGGCCAGACUGCC as the variant, how does the self-cleavage read?
The self-cleavage was 0.24.

For GGCAGAGCUAAACACAGCGUGGCAAAGUGGCUGUGGCUAGACUCUC, which self-cleavage is on record?
Its self-cleavage is 0.02.

For GGCAGACCUCAUCAAAGCGUCGCCAAGUGGCUGUGGCUAGACUGCC, which self-cleavage is on record?
The self-cleavage was 0.04.

Which self-cleavage does the source give for GGCAGAGCUCAACACAGCUUGGUAUAGUGGCUGUGGCUAGACUGCC here?
Its self-cleavage is 0.45.

With GGCAGAGCUCAACACAUCGUGGCAAAGAGGCUGUGGCCAGACUGCC as the variant, how does the self-cleavage read?
The self-cleavage was 0.03.

Which self-cleavage does the source give for GGCAGAGCUCAACAUAGCGUGGCAAUGUAGCUGUGGCUAGACUGCC here?
The self-cleavage was 0.32.

For GGCAGAGCUCAACACAGCGUCGCAAAGUGGCUGUGGCCAGACUGUC, which self-cleavage is on record?
Its self-cleavage is 0.38.

For GGCAGAGCUCAACACAGCGUGUCAAAGUGGCAGUGGAUAGACGGCU, which self-cleavage is on record?
Its self-cleavage is 0.02.

With AACAGAGCUCAACACAGCGUGGCAAAGUGGCUGUGGCGAGACUGCC as the variant, how does the self-cleavage read?
Its self-cleavage is 0.13.

With GGCAGAGAUCAACACAGCGUGGCUAAGAGGCUGAGGCUAGACUGCC as the variant, how does the self-cleavage read?
Its self-cleavage is 0.22.

With GACACUGCCCAACACAGCGUGGCAAAGUGGCUGUGGCUAGACUGCC as the variant, how does the self-cleavage read?
Its self-cleavage is 0.06.

For GGCAAAGCUCAACACAGAGUGGCAAAGUGGCUGUGGCUAGGCUGCC, which self-cleavage is on record?
Its self-cleavage is 0.03.

For GGCAGAGCUCAACACUGCGUGGCAGAGUGGGUGUGGCCAGACUUCC, which self-cleavage is on record?
The self-cleavage was 0.

For GGCAGAGCUCAACACAGCGUGGCAAAGUGACUGUGGCUAAACUGCA, which self-cleavage is on record?
Its self-cleavage is 0.11.

With GGUAGAGCUCAACACAGCGUGGCAAAGUGGCUGUUGCUAGACUGCG as the variant, how does the self-cleavage read?
Its self-cleavage is 0.08.

For GGCGGAGCUAAACAUAGCGUGGAAAAGUUGCUGUGUCUAGACUGCA, which self-cleavage is on record?
The self-cleavage was 0.01.

Which self-cleavage does the source give for UGCAGAGCUCAGCACAGCGUGGCAAAGUUGCUGUGGCUAGACUGCC here?
The self-cleavage was 0.

For GGCAGAGCUCAACAUAGCGCGGCAAAGUGGCUGUGGAUAGACUGCC, which self-cleavage is on record?
The self-cleavage was 0.32.

Which self-cleavage does the source give for GGCAAAGCUCAACCAAGCGUGGCAAAGUGGCCGAGGCUAGACUUCC here?
Its self-cleavage is 0.

Which self-cleavage does the source give for GGCGGAGCUCAACACAGCGUGGCAAAGUUGCUGUGGCUAGCCUGCC here?
Its self-cleavage is 0.04.

For GGCAGAGCUCAACACAUCAUGGCAAAGUGUCUGUGGUUAGACUGCC, which self-cleavage is on record?
The self-cleavage was 0.14.

For GGGAGAGCUAAACAAACCGAGGCAAAGUCGCUGUGGCUAGACUGCC, which self-cleavage is on record?
The self-cleavage was 0.02.

For GGCAGAGCGCAACACAGCGCGGCAAAGUGGCCGUGGCUAGACUGCC, which self-cleavage is on record?
Its self-cleavage is 0.05.

For GGCAGAGCUCAACGCAGCGAGGCAAUGUGGCUGUGGCUAGACUGCC, which self-cleavage is on record?
The self-cleavage was 0.67.

Which self-cleavage does the source give for AGCAGAGCUCAACACAGCCCGGCAAAGUGGCUGUGGCUAGACUGCC here?
The self-cleavage was 0.1.

For GGCAGAGCUCACCGCAGCGUGGUAAAGUGGCUGUGGCUAGACUGCC, which self-cleavage is on record?
The self-cleavage was 0.01.

With GGCAGAUUUCGACGCAGCGUGGCAAAGUGGCUGUGGCUAGACUGCC as the variant, how does the self-cleavage read?
Its self-cleavage is 0.02.

Which self-cleavage does the source give for GGCAGAGCUCAACACAGAGUGGCAUAGUGGCUGUAGCUAGACUGCC here?
The self-cleavage was 0.07.

Which self-cleavage does the source give for GGCAGAGCUCAACACAGCGUGACAAAGUGGCUGUGUAUAGCCUGCU here?
The self-cleavage was 0.01.

With GGCAGAUCUCAACACAGCGUGGAAAAGUGGCUGUGGGGAGACUGCC as the variant, how does the self-cleavage read?
The self-cleavage was 0.01.

With GGCAGAGCUCAACACAGCCUGGCAAAGUGACUGUGGCUUGACUUCC as the variant, how does the self-cleavage read?
Its self-cleavage is 0.04.

With GGCAGAGAUCAACACAGCGUGGCUAAGUGGCUUUGGCUAGACUGCC as the variant, how does the self-cleavage read?
The self-cleavage was 0.07.

Which self-cleavage does the source give for GGCAUAGCUCAACACAGCGUAGCAUAGUGGCUGGGGCUAGACUGCA here?
The self-cleavage was 0.02.

With GGCAGAGCAGAACACAGUGUGGCAAAGUGGCUGUGGCUAAACUGCC as the variant, how does the self-cleavage read?
The self-cleavage was 0.

With GGCAGAGCUCAACACAGCGUGGCUAAGAGGCAGUGGCUAGACUGCC as the variant, how does the self-cleavage read?
Its self-cleavage is 0.04.

Which self-cleavage does the source give for GGCAGAGCUCAACUCAGCGUGGCAACGUAGCUGUGGCAAGACUGCC here?
Its self-cleavage is 0.34.

For GGCAGAGGUCAACACAGCGUGGCAAAGUGAUUGUGGCUAGACUGCC, which self-cleavage is on record?
Its self-cleavage is 0.02.

For AGCACAGUUCAACGCAGCGUGGCCAACUGGCUGUGGCUAGACUGCC, which self-cleavage is on record?
The self-cleavage was 0.4.

Which self-cleavage does the source give for GGCAGAGUUCAACACAGCGUAGCAAAGUGGCUUUGGCUAGACCGCC here?
Its self-cleavage is 0.11.

For GGCAGAGCUAAACACAGCGUGGCAAAGUGGCUGUUGCUUGACUGCC, which self-cleavage is on record?
The self-cleavage was 0.02.

For GGCAGAGAUCAACACAGCGUGGCAAAGUUGCUGUGGCUAGUCUGCC, which self-cleavage is on record?
The self-cleavage was 0.2.

Which self-cleavage does the source give for GGCACAGCUCAACACAUCGUGUAAAAGUGGCUGUGGCUAGACUGCA here?
The self-cleavage was 0.03.

With GGCAGAGCUCAACACAGCGUGGCAAUGGGGCUGUGGUUAGACUGCC as the variant, how does the self-cleavage read?
The self-cleavage was 0.03.

Which self-cleavage does the source give for GGCAGAGCUCAACACAGCGUGGCUAAGUGGCUGUGGCUUGACUGCG here?
Its self-cleavage is 1.96.

For GGCAGUGCUAAAAACAGCUUGGCAAAAUGGUUGUGGCUAGACUGCC, which self-cleavage is on record?
Its self-cleavage is 0.01.

Which self-cleavage does the source give for GGCAGAUCUCAACACAGCAUAGCAAAGUGGCUGUGGCUAGACUGCC here?
The self-cleavage was 1.55.

For CGCAGAGAUCAACACAGCGAGGCAAAGUGGCAGUGUCUAGACUGCC, which self-cleavage is on record?
Its self-cleavage is 0.01.

With GGCAAAGGUCAACGCAGCGUGGAAAAGUUGCUGUGGCUAGACUGCU as the variant, how does the self-cleavage read?
Its self-cleavage is 0.02.

With GCGAGAGCUCAACACAGCGUGCCAAAGUGGCUGUGACUAGACUGCC as the variant, how does the self-cleavage read?
The self-cleavage was 0.02.

For GGCAGAGCUCUACACAGCGUGGCAAACUGGCAGUGGCUAGACUGCC, which self-cleavage is on record?
The self-cleavage was 0.

Which self-cleavage does the source give for GGCAGAGGUUAACUCAGCGUGGCAAAGUGGCUGUAGCUAGACUGCC here?
The self-cleavage was 0.02.
